Laboratory results as given in PMC9911399, “Two distinct binding modes provide the RNA-binding protein RbFox with extraordinary sequence specificity”.
Residue numbers refer to the chain shown, from its start. This is one part of the list.

T1: RBFOX1 RRM (Homo sapiens, UniProt Q9NWB1 109-208)
T1 sequence: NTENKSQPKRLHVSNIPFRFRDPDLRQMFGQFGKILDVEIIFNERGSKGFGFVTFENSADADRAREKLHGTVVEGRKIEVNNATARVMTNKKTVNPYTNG

B1: UCACAAU (DNA:RNA)
RNA: GGGAGACCGGAAUUCAGAUUGUCCUCACAAUUUAAAUCCCGUCGUAGCCACCA
DNA 1: CAATCTGAATTCCGGTCTCCC
DNA 2: TGGTGGCTACGACGGGATT
B2: GGGGCGC (DNA:RNA)
RNA: GGGAGACCGGAAUUCAGAUUGUCCGGGGCGCUUAAAUCCCGUCGUAGCCACCA
DNA 1: CAATCTGAATTCCGGTCTCCC
DNA 2: TGGTGGCTACGACGGGATT
B3: GGGUUCA (DNA:RNA)
RNA: B2 RNA with G28U, C29U, G30C, C31A
DNA 1: CAATCTGAATTCCGGTCTCCC
DNA 2: TGGTGGCTACGACGGGATT
B4: GAAUGGG (DNA:RNA)
RNA: B2 RNA with G26A, G27A, G28U, C29G, C31G
DNA 1: CAATCTGAATTCCGGTCTCCC
DNA 2: TGGTGGCTACGACGGGATT
B5: CCUGGCU (DNA:RNA)
RNA: B1 RNA with U25C, A27U, C28G, A29G, A30C
DNA 1: CAATCTGAATTCCGGTCTCCC
DNA 2: TGGTGGCTACGACGGGATT
B6: ACUGUCU (DNA:RNA)
RNA: B1 RNA with U25A, A27U, C28G, A29U, A30C
DNA 1: CAATCTGAATTCCGGTCTCCC
DNA 2: TGGTGGCTACGACGGGATT
B7: GGGAAUG (DNA:RNA)
RNA: B2 RNA with G28A, C29A, G30U, C31G
DNA 1: CAATCTGAATTCCGGTCTCCC
DNA 2: TGGTGGCTACGACGGGATT
B8: GCUGCUG (DNA:RNA)
RNA: B2 RNA with G26C, G27U, G30U, C31G
DNA 1: CAATCTGAATTCCGGTCTCCC
DNA 2: TGGTGGCTACGACGGGATT
B9: UUUAACA (DNA:RNA)
RNA: B1 RNA with C26U, A27U, C28A, A30C, U31A
DNA 1: CAATCTGAATTCCGGTCTCCC
DNA 2: TGGTGGCTACGACGGGATT
B10: AAAAUAA (DNA:RNA)
RNA: B1 RNA with U25A, C26A, C28A, A29U, U31A
DNA 1: CAATCTGAATTCCGGTCTCCC
DNA 2: TGGTGGCTACGACGGGATT
B11: AGUACCG (DNA:RNA)
RNA: B2 RNA with G25A, G27U, G28A, G30C, C31G
DNA 1: CAATCTGAATTCCGGTCTCCC
DNA 2: TGGTGGCTACGACGGGATT
B12: GGACAAU (DNA:RNA)
RNA: B1 RNA with U25G, C26G
DNA 1: CAATCTGAATTCCGGTCTCCC
DNA 2: TGGTGGCTACGACGGGATT
B13: AAUGUCA (DNA:RNA)
RNA: B2 RNA with G25A, G26A, G27U, C29U, G30C, C31A
DNA 1: CAATCTGAATTCCGGTCTCCC
DNA 2: TGGTGGCTACGACGGGATT
B14: CCUAUGU (DNA:RNA)
RNA: B1 RNA with U25C, A27U, C28A, A29U, A30G
DNA 1: CAATCTGAATTCCGGTCTCCC
DNA 2: TGGTGGCTACGACGGGATT
B15: GUCGCGA (DNA:RNA)
RNA: B2 RNA with G26U, G27C, C31A
DNA 1: CAATCTGAATTCCGGTCTCCC
DNA 2: TGGTGGCTACGACGGGATT
B16: UGUUGGA (DNA:RNA)
RNA: B2 RNA with G25U, G27U, G28U, C29G, C31A
DNA 1: CAATCTGAATTCCGGTCTCCC
DNA 2: TGGTGGCTACGACGGGATT
B17: UAUACGU (DNA:RNA)
RNA: B2 RNA with G25U, G26A, G27U, G28A, C31U
DNA 1: CAATCTGAATTCCGGTCTCCC
DNA 2: TGGTGGCTACGACGGGATT
B18: UAAAGCU (DNA:RNA)
RNA: B1 RNA with C26A, C28A, A29G, A30C
DNA 1: CAATCTGAATTCCGGTCTCCC
DNA 2: TGGTGGCTACGACGGGATT
B19: UGAGCGG (DNA:RNA)
RNA: B2 RNA with G25U, G27A, C31G
DNA 1: CAATCTGAATTCCGGTCTCCC
DNA 2: TGGTGGCTACGACGGGATT
B20: AAUUAGU (DNA:RNA)
RNA: B1 RNA with U25A, C26A, A27U, C28U, A30G
DNA 1: CAATCTGAATTCCGGTCTCCC
DNA 2: TGGTGGCTACGACGGGATT
B21: GGGUCGG (DNA:RNA)
RNA: B2 RNA with G28U, C31G
DNA 1: CAATCTGAATTCCGGTCTCCC
DNA 2: TGGTGGCTACGACGGGATT
B22: UAGUAUU (DNA:RNA)
RNA: B1 RNA with C26A, A27G, C28U, A30U
DNA 1: CAATCTGAATTCCGGTCTCCC
DNA 2: TGGTGGCTACGACGGGATT
B23: AGUAUUU (DNA:RNA)
RNA: B2 RNA with G25A, G27U, G28A, C29U, G30U, C31U
DNA 1: CAATCTGAATTCCGGTCTCCC
DNA 2: TGGTGGCTACGACGGGATT
B24: CGCAUAG (DNA:RNA)
RNA: B2 RNA with G25C, G27C, G28A, C29U, G30A, C31G
DNA 1: CAATCTGAATTCCGGTCTCCC
DNA 2: TGGTGGCTACGACGGGATT
B25: CUAUCGU (DNA:RNA)
RNA: B2 RNA with G25C, G26U, G27A, G28U, C31U
DNA 1: CAATCTGAATTCCGGTCTCCC
DNA 2: TGGTGGCTACGACGGGATT
B26: CUUAUUA (DNA:RNA)
RNA: GGGAGACCGGAAUUCAGAUUGUCCCUUAUUAUUAAAUCCCGUCGUAGCCACCA
DNA 1: CAATCTGAATTCCGGTCTCCC
DNA 2: TGGTGGCTACGACGGGATT
B27: AGUAGGC (DNA:RNA)
RNA: B2 RNA with G25A, G27U, G28A, C29G
DNA 1: CAATCTGAATTCCGGTCTCCC
DNA 2: TGGTGGCTACGACGGGATT
B28: ACCAGUG (DNA:RNA)
RNA: B26 RNA with C25A, U26C, U27C, U29G, A31G
DNA 1: CAATCTGAATTCCGGTCTCCC
DNA 2: TGGTGGCTACGACGGGATT
B29: AUACGCA (DNA:RNA)
RNA: B26 RNA with C25A, U27A, A28C, U29G, U30C
DNA 1: CAATCTGAATTCCGGTCTCCC
DNA 2: TGGTGGCTACGACGGGATT
B30: AUCAACA (DNA:RNA)
RNA: B26 RNA with C25A, U27C, U29A, U30C
DNA 1: CAATCTGAATTCCGGTCTCCC
DNA 2: TGGTGGCTACGACGGGATT
B31: AGUGUCC (DNA:RNA)
RNA: B2 RNA with G25A, G27U, C29U, G30C
DNA 1: CAATCTGAATTCCGGTCTCCC
DNA 2: TGGTGGCTACGACGGGATT

Target: T1, RBFOX1 RRM
Assay: EMSA; HiTS-Eq, 1 nM pool, 10 min; buffer printed only for the single-RNA assays: 10 mM Tris pH 7.5, 150 mM NaCl, 3.4 mM EDTA, 0.001% NP-40, 30 C
Conditions: tags: His6 N-terminal (pET28a); label: 5' 32P
Procedure, shortened: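 A pool of RNA with 7 randomized nucleotides, 5′-radiolabelled and with DNA-annealed flanks, was equilibrated at 1 nM for 10 min in 50 µL with purified RbFox RRM, wild type or mutant, across increasing protein concentrations. Free RNA was separated by 8% native PAGE, excised, reverse-transcribed, barcoded by PCR and sequenced. Relative association constants were obtained from read-count changes of each RNA species versus the control reaction and normalised to the cognate motif.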

Binder	binding signal
B1	0.000576 KA relative to UGCAUGU
B2	0.0421 KA relative to UGCAUGU
B3	0.019 KA relative to UGCAUGU
B4	0.0115 KA relative to UGCAUGU
B5	0.0127 KA relative to UGCAUGU
B6	0.0115 KA relative to UGCAUGU
B7	0.0951 KA relative to UGCAUGU
B8	0.0323 KA relative to UGCAUGU
B9	0.00144 KA relative to UGCAUGU
B10	0.000967 KA relative to UGCAUGU
B11	0.0106 KA relative to UGCAUGU
B12	0.0198 KA relative to UGCAUGU
B13	0.00754 KA relative to UGCAUGU
B14	0.00621 KA relative to UGCAUGU
B15	0.013 KA relative to UGCAUGU
B16	0.00477 KA relative to UGCAUGU

Binder	binding signal
B17	0.00888 KA relative to UGCAUGU
B18	0.00971 KA relative to UGCAUGU
B19	0.0123 KA relative to UGCAUGU
B20	0.00734 KA relative to UGCAUGU
B21	0.0196 KA relative to UGCAUGU
B22	0.00549 KA relative to UGCAUGU
B23	0.00499 KA relative to UGCAUGU
B24	0.0102 KA relative to UGCAUGU
B25	0.0114 KA relative to UGCAUGU
B26	0.00184 KA relative to UGCAUGU
B27	0.00768 KA relative to UGCAUGU
B28	0.00615 KA relative to UGCAUGU
B29	0.00877 KA relative to UGCAUGU
B30	0.00141 KA relative to UGCAUGU
B31	0.00976 KA relative to UGCAUGU
